The source of these data is publication PMC4336329 (PLoS ONE, 2015).

SMILES strings stand for the structures. About 14,000 (4.5%) of roughly 310,000 compounds showed an effect of 50% or more. Effects have a minus sign here. Some of the results follow.
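Note: peak tail current of the secondary pulse compared with the same well before compound.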

The test deals with human ether-à-go-go-related gene (hERG) potassium channel (human, UniProt Q12809). The experiment in a line: primary screen, population patch clamp on CHO cells stably expressing hERG.
Sequence of human ether-à-go-go-related gene (hERG) potassium channel (Q12809 whole entry, looked up): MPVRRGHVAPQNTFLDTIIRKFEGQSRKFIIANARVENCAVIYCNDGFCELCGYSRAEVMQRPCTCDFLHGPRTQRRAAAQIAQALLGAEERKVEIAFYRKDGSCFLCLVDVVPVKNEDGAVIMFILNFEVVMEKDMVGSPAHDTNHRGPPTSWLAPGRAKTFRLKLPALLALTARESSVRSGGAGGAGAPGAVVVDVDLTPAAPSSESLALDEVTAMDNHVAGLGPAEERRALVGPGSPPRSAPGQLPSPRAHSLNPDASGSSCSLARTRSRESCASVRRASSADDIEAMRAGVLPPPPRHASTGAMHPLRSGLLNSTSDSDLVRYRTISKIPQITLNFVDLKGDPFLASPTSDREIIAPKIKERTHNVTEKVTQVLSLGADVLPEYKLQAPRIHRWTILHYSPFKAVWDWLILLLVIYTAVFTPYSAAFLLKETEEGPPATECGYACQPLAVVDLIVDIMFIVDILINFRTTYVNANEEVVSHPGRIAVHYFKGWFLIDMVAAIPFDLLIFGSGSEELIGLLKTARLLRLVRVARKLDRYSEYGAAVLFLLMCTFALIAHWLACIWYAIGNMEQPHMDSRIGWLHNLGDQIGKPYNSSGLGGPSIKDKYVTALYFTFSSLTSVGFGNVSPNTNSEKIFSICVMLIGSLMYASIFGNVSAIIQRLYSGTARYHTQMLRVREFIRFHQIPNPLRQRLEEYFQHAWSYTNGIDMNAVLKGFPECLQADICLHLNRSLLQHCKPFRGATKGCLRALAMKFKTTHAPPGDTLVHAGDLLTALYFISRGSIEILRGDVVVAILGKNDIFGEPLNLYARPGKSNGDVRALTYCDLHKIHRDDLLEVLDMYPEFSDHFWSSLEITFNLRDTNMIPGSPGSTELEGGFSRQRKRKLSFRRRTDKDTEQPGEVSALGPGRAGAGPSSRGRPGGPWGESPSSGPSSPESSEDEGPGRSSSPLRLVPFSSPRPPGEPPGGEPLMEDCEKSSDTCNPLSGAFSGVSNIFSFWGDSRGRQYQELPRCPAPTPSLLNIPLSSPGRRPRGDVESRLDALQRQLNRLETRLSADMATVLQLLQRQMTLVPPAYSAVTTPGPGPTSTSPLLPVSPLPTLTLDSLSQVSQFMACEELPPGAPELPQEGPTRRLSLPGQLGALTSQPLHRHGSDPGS
Regarding `Nc1nc2c(ncn2[C@H]2C[C@H](O)[C@@H](CO)O2)c(=O)[nH]1.O`, the “hERG current change (%, negative = inhibition) at 10uM” value was 12.7%.

`O=C(Nc1nnc(C2=COCCO2)o1)c1cccc(F)c1`: the “hERG current change (%, negative = inhibition) at 10uM” value came out at 16.7%.

As for `O=C(Nc1ccccc1N1CCOCC1)C1CCCCN1S(=O)(=O)c1ccccc1` (centres unmarked), the “hERG current change (%, negative = inhibition) at 10uM” value is -20.8%.

On to `Cc1ccc2cc(CNCCc3ccccc3C)c(=O)[nH]c2c1`, for which the “hERG current change (%, negative = inhibition) at 10uM” value was -69.7%.

As for `Cc1ccc(-n2nc(C)c3c(C)c(CCC(=O)Nc4ccc(CN5CCCC5)cc4)c(C)nc32)cc1`, the “hERG current change (%, negative = inhibition) at 10uM” value is -60.2%.

As to `O=C(O)c1ccc(CN2CCOCC2)o1`, the “hERG current change (%, negative = inhibition) at 10uM” value came out at 11.5%.

On to `CN(/C=C/c1c([N+](=O)[O-])c(=O)n(C)c(=O)n1C)c1ccccc1`, for which the “hERG current change (%, negative = inhibition) at 10uM” value was -18.7%.

In the case of `CN1CCc2c(sc(NC(=O)c3ccc4ccccc4c3)c2C(N)=O)C1.Cl`, the “hERG current change (%, negative = inhibition) at 10uM” value is reported as -5.05%.

`Cc1ccc(S(=O)(=O)N(CC(=O)NCc2ccco2)c2ccccc2C)cc1`: the “hERG current change (%, negative = inhibition) at 10uM” value was -8.75%.

`CC(C)c1ccc(C2CC(=O)N3CN(Cc4ccco4)CSC3=C2C#N)cc1` (centres unmarked): the “hERG current change (%, negative = inhibition) at 10uM” value came to 14.5%.

Turning to `COc1ccc(-n2cc(CN3CCCC3)c(-c3cccc(F)c3)n2)cc1`, the “hERG current change (%, negative = inhibition) at 10uM” value is -57%.

With `c1ccc(-c2noc(CN3CCOCC3)n2)cc1`, the “hERG current change (%, negative = inhibition) at 10uM” value worked out at 29%.

On to `CCCNC(=O)Nc1cc(S(=O)(=O)CC)ccc1O`, for which the “hERG current change (%, negative = inhibition) at 10uM” value turned out to be 11.9%.

For the molecule `Nc1ccc(Oc2ccccc2F)nc1`, the “hERG current change (%, negative = inhibition) at 10uM” value was 11.9%.

For `CCOc1ccc(N2C(=O)CC(C(C)c3ccccc3)C2=O)cc1` (centres unmarked), the “hERG current change (%, negative = inhibition) at 10uM” value was -11.6%.

Turning to `COC(=O)COc1ccc(/C=N/NC(=O)c2ccc(N(Cc3ccccc3)S(C)(=O)=O)cc2)cc1`, the “hERG current change (%, negative = inhibition) at 10uM” value is reported as 0.0151%.

With `CN(CC(=O)Nc1ccc(F)cc1)C(=O)CSc1ncccn1`, the “hERG current change (%, negative = inhibition) at 10uM” value was 14.3%.

`COc1ccc(S(=O)(=O)N2CN3CCN(C3)C2)cc1OC`: the “hERG current change (%, negative = inhibition) at 10uM” value is listed as 7.42%.

Regarding `CS(=O)(=O)c1nc(S(=O)(=O)c2ccc(Cl)cc2)c(NCCCn2ccnc2)s1`, the “hERG current change (%, negative = inhibition) at 10uM” value is listed as -25.8%.

For the molecule `O=C(CN1C(=O)NC2(CCCc3ccccc32)C1=O)N1CCN(c2cccc(C(F)(F)F)c2)CC1` (centres unmarked), the “hERG current change (%, negative = inhibition) at 10uM” value is on record as -9.03%.

Take `Cc1nnc(SCC(=O)Nc2cccc(C(F)(F)F)c2)n1Cc1ccco1`: the “hERG current change (%, negative = inhibition) at 10uM” value is -31.4%.

As for `CC(C)(CO)NCc1cc(Br)ccc1OCc1ccccc1.Cl`, the “hERG current change (%, negative = inhibition) at 10uM” value was -35.5%.

For the molecule `CSc1ccccc1NC(=O)Cn1c(-c2cscn2)nc2ccccc21`, the “hERG current change (%, negative = inhibition) at 10uM” value is reported as -23.8%.

Regarding `O=C(Nc1cccc(S(=O)(=O)N2CCCCCC2)c1)c1ccc2ccccc2n1`, the “hERG current change (%, negative = inhibition) at 10uM” value was -2.91%.

Take `Cc1ccccc1COc1ccc2oc(C)c(C(=O)O)c2c1`: the “hERG current change (%, negative = inhibition) at 10uM” value is on record as 14.9%.

Regarding `CC(=N\Nc1ccc(Cl)cc1)/C(=N/O)C(=O)Nc1ccccc1`, the “hERG current change (%, negative = inhibition) at 10uM” value is -0.969%.

Turning to `CCC1=C([N+](=O)[O-])C(c2ccc3c(c2)OCO3)NC(=O)N1` (centres unmarked), the “hERG current change (%, negative = inhibition) at 10uM” value turned out to be 16%.

For `COc1ccc(-n2c(=O)[nH]cc(C(=O)Nc3ccccc3)c2=O)cc1`, the “hERG current change (%, negative = inhibition) at 10uM” value came out at 4.33%.

Regarding `Cc1cc(C)n(CC(=O)N2CCCC(C(=O)c3cccc(OC(C)C)c3)C2)n1` (centres unmarked), the “hERG current change (%, negative = inhibition) at 10uM” value was -20.1%.

Regarding `Cc1cccc(N(Cc2ccccc2F)S(C)(=O)=O)c1`, the “hERG current change (%, negative = inhibition) at 10uM” value came to 3.07%.

For `COc1ccc(C)cc1NC(=O)CN(c1ccccc1F)S(C)(=O)=O`, the “hERG current change (%, negative = inhibition) at 10uM” value is reported as -5.63%.

Consider `O=S(=O)(c1ccc(F)c2ccccc12)N1CCCCC1`, for which the “hERG current change (%, negative = inhibition) at 10uM” value is recorded as 0.38%.

On to `CCN1CCN(S(=O)(=O)c2ccc(Oc3ccccc3OC)cc2)CC1`, for which the “hERG current change (%, negative = inhibition) at 10uM” value was -15%.

In the case of `CCSCCOC(=O)C1=C(C)NC(=O)NC1c1ccc2c(c1)OCO2` (centres unmarked), the “hERG current change (%, negative = inhibition) at 10uM” value is on record as -13.4%.

For the molecule `Cc1ccc(CSCCNC(=O)CN(c2cccc([N+](=O)[O-])c2)S(C)(=O)=O)cc1`, the “hERG current change (%, negative = inhibition) at 10uM” value was -53.2%.

`COc1cccc(NC(=O)CN(C)CC(=O)Nc2ccc(C)cc2Cl)c1`: the “hERG current change (%, negative = inhibition) at 10uM” value was -15.4%.

For `Cc1nn(-c2ccccc2)c(C)c1/C=N/O`, the “hERG current change (%, negative = inhibition) at 10uM” value is 3.41%.

For `COc1ccc(-n2c(-c3ccccc3[N+](=O)[O-])nc3ccccc3c2=O)cc1`, the “hERG current change (%, negative = inhibition) at 10uM” value is given as -68.7%.

As for `CCc1ccc(N2CC(C(=O)OCC(=O)Nc3ccc(C#N)cc3)CC2=O)cc1` (centres unmarked), the “hERG current change (%, negative = inhibition) at 10uM” value is listed as -57.9%.

In the case of `Cc1ccc(S(=O)(=O)N(C)c2ccc(OCC(=O)N3CCCCC3)cc2)cc1`, the “hERG current change (%, negative = inhibition) at 10uM” value is on record as -10.5%.

With `CCNCCC(CCC(C)C)c1ccc2c(c1)OCO2` (centres unmarked), the “hERG current change (%, negative = inhibition) at 10uM” value is reported as -72%.

`COC(=O)c1ccc(C2/C(=C(/O)c3ccc(OC)cc3)C(=O)C(=O)N2c2cc(C)on2)cc1` (centres unmarked): the “hERG current change (%, negative = inhibition) at 10uM” value is recorded as 9.91%.

On to `CC(=O)Nc1ccc(NS(=O)(=O)c2ccc(C)cc2)c([N+](=O)[O-])c1`, for which the “hERG current change (%, negative = inhibition) at 10uM” value is -24.9%.

Consider `Cc1ccc(CNC(=O)C2CCN(S(=O)(=O)c3cnc[nH]3)CC2)cc1`, for which the “hERG current change (%, negative = inhibition) at 10uM” value worked out at 6.12%.

On to `Cc1ccc(Nc2ccc(N)cc2S(=O)(=O)O)cc1`, for which the “hERG current change (%, negative = inhibition) at 10uM” value was 14.8%.

`COc1ccc(N(C(=O)Cn2nnc(-c3ccc(F)cc3)n2)C(C)C(=O)NC2CCCC2)cc1` (centres unmarked): the “hERG current change (%, negative = inhibition) at 10uM” value is listed as -22%.

Take `Cc1ccc(S(=O)(=O)N(C)c2ccc(OCc3cccc(C)c3)cc2)cc1`: the “hERG current change (%, negative = inhibition) at 10uM” value turned out to be 22.5%.

In the case of `C#CCn1c(=NC(=O)c2cc(Cl)sc2Cl)sc2cc(S(N)(=O)=O)ccc21`, the “hERG current change (%, negative = inhibition) at 10uM” value is recorded as 4.89%.

As for `O=S(=O)(Nc1nc2ccccc2nc1N1CCc2ccccc2C1)c1ccc(Br)cc1`, the “hERG current change (%, negative = inhibition) at 10uM” value is reported as 5.81%.

On to `Nc1c(NCc2ccccc2)c(=O)c1=O`, for which the “hERG current change (%, negative = inhibition) at 10uM” value is recorded as -6.37%.

With `CC(C)OC(=O)CSc1nnc(CNc2ccc(Cl)cc2)n1C`, the “hERG current change (%, negative = inhibition) at 10uM” value was -20.2%.

In the case of `CCCn1c2c(c(O)c(C(=O)Nc3ccc(OC)cc3)c1=O)CCCC2`, the “hERG current change (%, negative = inhibition) at 10uM” value is listed as 6.58%.

Regarding `CCOC(=O)c1c(C)[nH]c(C(=O)CN2C(=O)NC(CC)(c3ccccc3)C2=O)c1C` (centres unmarked), the “hERG current change (%, negative = inhibition) at 10uM” value was determined as 10.5%.

For `O=C(CSc1nncs1)Nc1nnc(-c2ccccc2)o1`, the “hERG current change (%, negative = inhibition) at 10uM” value came to 19.3%.

With `CCOc1ccc(N/C=C\C(=O)c2ccc3c(c2)OCO3)cc1`, the “hERG current change (%, negative = inhibition) at 10uM” value is reported as 16.7%.

Consider `Cc1ccc(CN(C)C(=O)CSc2nnc3n2CCCCC3)c(C)c1`, for which the “hERG current change (%, negative = inhibition) at 10uM” value is -1.03%.
